In publication PMC2928299:
No constants are given. Whether binding was seen depends on the method and setting. In cells and extracts the contact can be indirect. Some entries that bind do so weakly or less than the wild type. Where a sequence is shown, tags or fusion partners need not be part of it. One block for each binder: values may come before it.

Biological target: T1, SBP-Flag Rnd3 (mouse) (UniProt P61588)
T1 sequence: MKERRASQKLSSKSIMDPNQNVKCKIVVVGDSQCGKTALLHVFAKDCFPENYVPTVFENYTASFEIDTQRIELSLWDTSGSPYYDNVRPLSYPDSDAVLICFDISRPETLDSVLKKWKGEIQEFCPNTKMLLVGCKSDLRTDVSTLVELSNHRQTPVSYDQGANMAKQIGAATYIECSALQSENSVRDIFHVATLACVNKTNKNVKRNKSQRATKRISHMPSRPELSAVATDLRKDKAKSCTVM
Assay: pull-down; streptavidin (SBP) pull-down from lysates of co-transfected 293T cells, SBP-Flag GTPase as bait; beads 1 h at 4°C, 3 washes, elution with 2 mM biotin; immunoblot for Flag

B1: Flag-Syx(77–800) (domain or fragment, UniProt Q66T02 77-800)
chain: RFDLPPQGSVLARNVSTRSCPPRTSPAADLEEEEEGCTDGKGDRKSAGLKISKKKARRRHTDDPSKECFTLKFDLNVDIETEIVPAMKKKSLGEVLLPVFERKGIALGKVDIYLDQSNTPLSLTFEAYRFGGHYLRVKAKPGDEGKVEQGVKDSKSLSLPALRPSGAGPPVSERVDPQSRRESSLDILAPGRRRKNMSEFLGEAGIPGHEPPAPSSCSLPVGSSGGTSSGINESWKNRAASRFSGFFSSSPSTSAFSREVDKMEQLESKLHAYSLFGLPRMPRRLRFDHDSWEEEEEDDEEDEESSGLRLEDSWRELTDGHEKLTRRQCHQQEAVWELLHTEVSYIRKLRVITNLFLCCLLNLQESGLLCEVEAERLFSNIPEIAKLHRGLWGSVMVPVLEKARRTRALLQPSDFLKGFKMFGSLFKPYIRYCMEEEGCMEYMRGLLRDNDLFRAYVTWAEKHQQCQRLKLSDMLAKPHQRLTKYPLLLKSVLRKTDDPRTKEAIVTMISSVERFIHHVNTCMRQRQERQRLAGVVSRIDAYEVVEGSNDEVDKLLKEFLHLDLTAPMPGTSPEETRQLLLEGSLRMKEGKDSKMDVYCFLFTDLLLVTKAVKKAERTKVIRPPLLVDKIVCRELRDPGSFLLIYLNEFHSAVGAYTFQASSQALCRSWVDTIYNAQNQLQQLRAQLSAQEHPGSQHLQSLEEEEDEQEEEGEESGTSAASSPT
binding: binds

B2: Flag-Syx(1–393) (domain or fragment, UniProt Q66T02-1 1-393)
chain: MGTGPGVSGRRAAARPSSELPSPDSQLLWVGGHAHSSDSQVCHHADCQQLHHRGPLNLCETCDSKFHSTLHYDGHVRFDLPPQGSVLARNVSTRSCPPRTSPAADLEEEEEGCTDGKGDRKSAGLKISKKKARRRHTDDPSKECFTLKFDLNVDIETEIVPAMKKKSLGEVLLPVFERKGIALGKVDIYLDQSNTPLSLTFEAYRFGGHYLRVKAKPGDEGKVEQGVKDSKSLSLPALRPSGAGPPVSERVDPQSRRESSLDILAPGRRRKNMSEFLGEAGIPGHEPPAPSSCSLPVGSSGGTSSGINESWKNRAASRFSGFFSSSPSTSAFSREVDKMEQLESKLHAYSLFGLPRMPRRLRFDHDSWEEEEEDDEEDEESSGLRLEDSWREL
binding: binds

B3: Flag-Syx(1–657) (domain or fragment, UniProt Q66T02-1 1-657)
chain: MGTGPGVSGRRAAARPSSELPSPDSQLLWVGGHAHSSDSQVCHHADCQQLHHRGPLNLCETCDSKFHSTLHYDGHVRFDLPPQGSVLARNVSTRSCPPRTSPAADLEEEEEGCTDGKGDRKSAGLKISKKKARRRHTDDPSKECFTLKFDLNVDIETEIVPAMKKKSLGEVLLPVFERKGIALGKVDIYLDQSNTPLSLTFEAYRFGGHYLRVKAKPGDEGKVEQGVKDSKSLSLPALRPSGAGPPVSERVDPQSRRESSLDILAPGRRRKNMSEFLGEAGIPGHEPPAPSSCSLPVGSSGGTSSGINESWKNRAASRFSGFFSSSPSTSAFSREVDKMEQLESKLHAYSLFGLPRMPRRLRFDHDSWEEEEEDDEEDEESSGLRLEDSWRELTDGHEKLTRRQCHQQEAVWELLHTEVSYIRKLRVITNLFLCCLLNLQESGLLCEVEAERLFSNIPEIAKLHRGLWGSVMVPVLEKARRTRALLQPSDFLKGFKMFGSLFKPYIRYCMEEEGCMEYMRGLLRDNDLFRAYVTWAEKHQQCQRLKLSDMLAKPHQRLTKYPLLLKSVLRKTDDPRTKEAIVTMISSVERFIHHVNTCMRQRQERQRLAGVVSRIDAYEVVEGSNDEVDKLLKEFLHLDLTAPMPGTSPEETRQLLL
binding: binds

B5: Flag-Syx(1–800) E156A/T157A (domain or fragment, UniProt Q66T02-1 1-800)
chain: MGTGPGVSGRRAAARPSSELPSPDSQLLWVGGHAHSSDSQVCHHADCQQLHHRGPLNLCETCDSKFHSTLHYDGHVRFDLPPQGSVLARNVSTRSCPPRTSPAADLEEEEEGCTDGKGDRKSAGLKISKKKARRRHTDDPSKECFTLKFDLNVDIAAEIVPAMKKKSLGEVLLPVFERKGIALGKVDIYLDQSNTPLSLTFEAYRFGGHYLRVKAKPGDEGKVEQGVKDSKSLSLPALRPSGAGPPVSERVDPQSRRESSLDILAPGRRRKNMSEFLGEAGIPGHEPPAPSSCSLPVGSSGGTSSGINESWKNRAASRFSGFFSSSPSTSAFSREVDKMEQLESKLHAYSLFGLPRMPRRLRFDHDSWEEEEEDDEEDEESSGLRLEDSWRELTDGHEKLTRRQCHQQEAVWELLHTEVSYIRKLRVITNLFLCCLLNLQESGLLCEVEAERLFSNIPEIAKLHRGLWGSVMVPVLEKARRTRALLQPSDFLKGFKMFGSLFKPYIRYCMEEEGCMEYMRGLLRDNDLFRAYVTWAEKHQQCQRLKLSDMLAKPHQRLTKYPLLLKSVLRKTDDPRTKEAIVTMISSVERFIHHVNTCMRQRQERQRLAGVVSRIDAYEVVEGSNDEVDKLLKEFLHLDLTAPMPGTSPEETRQLLLEGSLRMKEGKDSKMDVYCFLFTDLLLVTKAVKKAERTKVIRPPLLVDKIVCRELRDPGSFLLIYLNEFHSAVGAYTFQASSQALCRSWVDTIYNAQNQLQQLRAQLSAQEHPGSQHLQSLEEEEDEQEEEGEESGTSAASSPT
binding: binds

B6: Flag-Syx (381–1033) (domain or fragment, UniProt Q66T02 381-1033)
chain: SSGLRLEDSWRELTDGHEKLTRRQCHQQEAVWELLHTEVSYIRKLRVITNLFLCCLLNLQESGLLCEVEAERLFSNIPEIAKLHRGLWGSVMVPVLEKARRTRALLQPSDFLKGFKMFGSLFKPYIRYCMEEEGCMEYMRGLLRDNDLFRAYVTWAEKHQQCQRLKLSDMLAKPHQRLTKYPLLLKSVLRKTDDPRTKEAIVTMISSVERFIHHVNTCMRQRQERQRLAGVVSRIDAYEVVEGSNDEVDKLLKEFLHLDLTAPMPGTSPEETRQLLLEGSLRMKEGKDSKMDVYCFLFTDLLLVTKAVKKAERTKVIRPPLLVDKIVCRELRDPGSFLLIYLNEFHSAVGAYTFQASSQALCRSWVDTIYNAQNQLQQLRAQLSAQEHPGSQHLQSLEEEEDEQEEEGEESGTSAASSPTILRKSSNSLDSEHCTSDGSTETLAMVVVEPGATLSSPEFEGGPVSSQSDESSLSNTASSVTPTSELLPLGPVDGRSCSMDSAYGTLSPTSLQDFVAPHPVVEPAPVPQTPSPQPSPRLRRRTPVQLLPRPPRLLKSKSEASLLQLLSGTPAARGVPPAPSRSLSELCLISVAPGVRTQRPLQEGGPGWNGPGMCDPCHGPQLSESENRPSHMTGGPADSARRRCREMPSGTMS
binding: no binding

Results, then the binder that gave them:

binding: binds
B4: Flag-Syx(136–800) (domain or fragment, UniProt Q66T02 136-800)
chain: HTDDPSKECFTLKFDLNVDIETEIVPAMKKKSLGEVLLPVFERKGIALGKVDIYLDQSNTPLSLTFEAYRFGGHYLRVKAKPGDEGKVEQGVKDSKSLSLPALRPSGAGPPVSERVDPQSRRESSLDILAPGRRRKNMSEFLGEAGIPGHEPPAPSSCSLPVGSSGGTSSGINESWKNRAASRFSGFFSSSPSTSAFSREVDKMEQLESKLHAYSLFGLPRMPRRLRFDHDSWEEEEEDDEEDEESSGLRLEDSWRELTDGHEKLTRRQCHQQEAVWELLHTEVSYIRKLRVITNLFLCCLLNLQESGLLCEVEAERLFSNIPEIAKLHRGLWGSVMVPVLEKARRTRALLQPSDFLKGFKMFGSLFKPYIRYCMEEEGCMEYMRGLLRDNDLFRAYVTWAEKHQQCQRLKLSDMLAKPHQRLTKYPLLLKSVLRKTDDPRTKEAIVTMISSVERFIHHVNTCMRQRQERQRLAGVVSRIDAYEVVEGSNDEVDKLLKEFLHLDLTAPMPGTSPEETRQLLLEGSLRMKEGKDSKMDVYCFLFTDLLLVTKAVKKAERTKVIRPPLLVDKIVCRELRDPGSFLLIYLNEFHSAVGAYTFQASSQALCRSWVDTIYNAQNQLQQLRAQLSAQEHPGSQHLQSLEEEEDEQEEEGEESGTSAASSPT

binding: binds
B7: Syx(145–216) (domain or fragment, UniProt Q66T02 145-216)
chain: FTLKFDLNVDIETEIVPAMKKKSLGEVLLPVFERKGIALGKVDIYLDQSNTPLSLTFEAYRFGGHYLRVKAK

binding: binds
B8: Flag-Syx(112–800) (domain or fragment, UniProt Q66T02 112-800)
chain: GCTDGKGDRKSAGLKISKKKARRRHTDDPSKECFTLKFDLNVDIETEIVPAMKKKSLGEVLLPVFERKGIALGKVDIYLDQSNTPLSLTFEAYRFGGHYLRVKAKPGDEGKVEQGVKDSKSLSLPALRPSGAGPPVSERVDPQSRRESSLDILAPGRRRKNMSEFLGEAGIPGHEPPAPSSCSLPVGSSGGTSSGINESWKNRAASRFSGFFSSSPSTSAFSREVDKMEQLESKLHAYSLFGLPRMPRRLRFDHDSWEEEEEDDEEDEESSGLRLEDSWRELTDGHEKLTRRQCHQQEAVWELLHTEVSYIRKLRVITNLFLCCLLNLQESGLLCEVEAERLFSNIPEIAKLHRGLWGSVMVPVLEKARRTRALLQPSDFLKGFKMFGSLFKPYIRYCMEEEGCMEYMRGLLRDNDLFRAYVTWAEKHQQCQRLKLSDMLAKPHQRLTKYPLLLKSVLRKTDDPRTKEAIVTMISSVERFIHHVNTCMRQRQERQRLAGVVSRIDAYEVVEGSNDEVDKLLKEFLHLDLTAPMPGTSPEETRQLLLEGSLRMKEGKDSKMDVYCFLFTDLLLVTKAVKKAERTKVIRPPLLVDKIVCRELRDPGSFLLIYLNEFHSAVGAYTFQASSQALCRSWVDTIYNAQNQLQQLRAQLSAQEHPGSQHLQSLEEEEDEQEEEGEESGTSAASSPT

binding: no binding
B9: Flag-Syx(162–800) (domain or fragment, UniProt Q66T02 162-800)
chain: AMKKKSLGEVLLPVFERKGIALGKVDIYLDQSNTPLSLTFEAYRFGGHYLRVKAKPGDEGKVEQGVKDSKSLSLPALRPSGAGPPVSERVDPQSRRESSLDILAPGRRRKNMSEFLGEAGIPGHEPPAPSSCSLPVGSSGGTSSGINESWKNRAASRFSGFFSSSPSTSAFSREVDKMEQLESKLHAYSLFGLPRMPRRLRFDHDSWEEEEEDDEEDEESSGLRLEDSWRELTDGHEKLTRRQCHQQEAVWELLHTEVSYIRKLRVITNLFLCCLLNLQESGLLCEVEAERLFSNIPEIAKLHRGLWGSVMVPVLEKARRTRALLQPSDFLKGFKMFGSLFKPYIRYCMEEEGCMEYMRGLLRDNDLFRAYVTWAEKHQQCQRLKLSDMLAKPHQRLTKYPLLLKSVLRKTDDPRTKEAIVTMISSVERFIHHVNTCMRQRQERQRLAGVVSRIDAYEVVEGSNDEVDKLLKEFLHLDLTAPMPGTSPEETRQLLLEGSLRMKEGKDSKMDVYCFLFTDLLLVTKAVKKAERTKVIRPPLLVDKIVCRELRDPGSFLLIYLNEFHSAVGAYTFQASSQALCRSWVDTIYNAQNQLQQLRAQLSAQEHPGSQHLQSLEEEEDEQEEEGEESGTSAASSPT
